# In PubChem BioAssay AID488969 (Vanderbilt High Throughput Screening Facility, 2010):
# Several values for one entry are separate records, joined by “and”; a condition that tells them apart may be missing. Equal entries are not always repeated. The full ranking holds about 110,000 compounds; the median of “z-score” is about -0.1, and the highest 2% start at about 2. The list shows a part of the results. Activity calls are given as the source filed them.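 How the source made its calls: active means z-score in the third read window above 3 or below -3; inactive means the rest.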
# Target: Metabotropic glutamate receptor 8 (Rattus norvegicus) (UniProt P70579)
# UniProt P70579, sequence (P70579 whole entry, looked up): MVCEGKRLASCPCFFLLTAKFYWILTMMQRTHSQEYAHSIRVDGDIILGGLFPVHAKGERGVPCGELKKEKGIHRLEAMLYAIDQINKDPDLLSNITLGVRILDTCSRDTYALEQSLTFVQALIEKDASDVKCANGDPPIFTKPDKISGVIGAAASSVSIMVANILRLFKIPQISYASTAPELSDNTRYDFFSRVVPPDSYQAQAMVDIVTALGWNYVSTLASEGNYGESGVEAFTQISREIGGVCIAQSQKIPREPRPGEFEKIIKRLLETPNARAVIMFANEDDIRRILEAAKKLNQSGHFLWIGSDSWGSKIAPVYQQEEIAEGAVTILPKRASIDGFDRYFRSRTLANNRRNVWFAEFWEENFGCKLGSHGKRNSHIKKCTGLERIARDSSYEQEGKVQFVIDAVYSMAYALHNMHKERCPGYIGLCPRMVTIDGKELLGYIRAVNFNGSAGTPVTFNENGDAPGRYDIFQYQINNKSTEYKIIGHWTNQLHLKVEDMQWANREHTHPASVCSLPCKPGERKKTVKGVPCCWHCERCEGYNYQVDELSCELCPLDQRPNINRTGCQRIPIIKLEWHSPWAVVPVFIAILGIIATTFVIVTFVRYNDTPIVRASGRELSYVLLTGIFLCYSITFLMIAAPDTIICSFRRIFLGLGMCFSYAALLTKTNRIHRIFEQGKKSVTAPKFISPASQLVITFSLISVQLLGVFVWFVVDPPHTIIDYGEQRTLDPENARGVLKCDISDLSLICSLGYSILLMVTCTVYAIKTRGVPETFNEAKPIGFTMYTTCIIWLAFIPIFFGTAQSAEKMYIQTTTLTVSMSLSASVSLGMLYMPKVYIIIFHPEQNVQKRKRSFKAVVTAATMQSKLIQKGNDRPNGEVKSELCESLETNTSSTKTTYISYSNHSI
# Test: rat mGluR8 modulators via GIRK flux, primary screen, cell-based, thallium flux, HTS (AID 488969)
# Settings: HEK293 rat mGluR8, GIRK (G protein-gated inwardly rectifying potassium channel) thallium flux, FluoZin2; at 10 µM; stronger effect = higher value; submaximal glutamate (EC20) added with thallium
row,Compound,z-score
1,CSc1nsc(SC)c1C(=O)N1CCN(S(=O)(=O)c2ccc(C)cc2)C1C(C)C (stereo unspecified),-0.101
2,CCOC(=O)c1c(-c2ccccc2)n(C)c2ccc(O)cc12,-0.22
3,Cc1cc(=O)oc2ccc(OCC(=O)NCc3ccco3)cc12,0.0447
4,O=C(Cc1ccccc1)N1CCC(C(=O)N2CCN(c3ccc(F)cc3)CC2)CC1,-0.407
5,CCCn1c(O)c2ccc(C(=O)N=NC(=O)c3cccnc3)cc2c1O,-0.213
6,CCCOC(=O)c1ccc(OCC(O)CN2CCN(C(=O)c3ccccc3)CC2)cc1 (stereo unspecified),-0.174
7,CC(n1cnnn1)C12CC3CC(CC(C3)C1)C2 (stereo unspecified),-0.109
8,O=C(Nc1cccc(S(=O)(=O)N2CCOCC2)c1)[C@@H]1CCCN1S(=O)(=O)c1ccc(Cl)cc1,-0.283
9,CN(C)c1ccc(/C=N/NC(=S)NCc2ccco2)cc1,0.0065
10,O=C(COC(=O)C1CCN(S(=O)(=O)c2cccs2)CC1)c1ccc2c(c1)OCCO2,-0.539
11,S=C(NCCc1ccccc1)NC1CC1,-0.0025
12,Cc1cccc(N2CSC3=C(C#N)C(c4ccc(C)o4)CC(=O)N3C2)c1 (stereo unspecified),-0.375
13,Cc1cccc(N2CCN(C(=O)c3cccc(S(=O)(=O)N4CCc5ccccc5C4)c3)CC2C)c1 (stereo unspecified),-0.537
14,CCOC(=O)c1oc2nc(C(C)C)c3c(c2c1N)CCC3,0.0843
15,O=C(Nc1ncn[nH]1)c1ccc(Cl)c(S(=O)(=O)N2CCCCCC2)c1,-0.368
16,COc1ccccc1CC(=O)N(CCC#N)CCC#N,-0.512
17,CCOC(=O)c1c(C)n(C)c2cc(Br)c(C)cc12,0.0367
18,O=S(=O)(NCCCCCNS(=O)(=O)c1ccccc1)c1ccccc1,0.239
19,Cc1nc(SCC(=O)NC(=O)NCc2ccccc2)nc(C)c1C,0.372
20,NC(=O)SCC(=O)Nc1ccc(Cl)cc1,active: 5.18
21,Cc1ccc(NC(=O)Cn2c(=O)oc3cc(S(=O)(=O)N4CCC(C)CC4)ccc32)cc1C,-0.417
22,CCCCN1CC2([N+](=O)[O-])C=CC(=O)C([N+](=O)[O-])(C1)C2CC(=O)c1ccccc1 (stereo unspecified),0.124
23,COc1ccc(OC)c(/C=N/NC(=O)c2[nH]nc3c2CCc2ccccc2-3)c1,-0.0907

row,Compound,z-score
1,COc1ccc(C(=O)NC(=S)NNC(=O)c2cnccn2)cc1OC,-0.43
2,c1nc(N2CCOCC2)c2c3c(sc2n1)CCCC3,-0.441
3,COc1cc(C(O)P(=O)(OC(C)C)OC(C)C)cc(OC)c1OC (stereo unspecified),-0.0504
4,c1ccc(-c2ccc(-c3csnn3)cc2)cc1,0.0432
5,CCC(SC1=NCCS1)C(=O)Nc1ccc(S(N)(=O)=O)cc1 (stereo unspecified),-0.397
6,O=C(NC(Cc1ccc2c(c1)OCO2)C(=O)N1CCCC1C(=O)O)c1ccccc1 (stereo unspecified),-0.0785
7,CCCC(=O)c1cc(-c2nc3ccccc3n2C)n(C)c1,0.164
8,O=C(COC(=O)c1cccs1)NCCC1=CCCCC1,0.0493
9,COc1cc(NC(=O)c2cc3c(Cl)nc4ccccc4c3s2)cc(OC)c1OC,0.176
10,COc1ccc(NC(=O)CC2C(=O)N(c3cccc(C)c3)C(=O)N2C2CCCCC2)cc1 (stereo unspecified),-0.0942
11,Cc1cccc(NC(=O)c2cccc(N3C(=O)C4C5CCC(C5)C4C3=O)c2)c1C (stereo unspecified),-0.379
12,COc1ccc(CC(=O)N2CC(=O)N(CCc3ccccc3)C(=O)C2)cc1,0.258
13,O=C(Nc1c(F)cc(F)cc1Br)c1cc(-c2ccco2)on1,-0.358
14,CCCCc1nnc(NC(=O)C=C(C)C)s1,-0.873
15,COc1ccc(-n2nc(C(=O)NCC(=O)NCc3ccco3)c3ccccc3c2=O)cc1,-0.468
16,CCc1ccc(OCC(=O)OCC(=O)c2ccc3c(c2)NC(=O)CO3)cc1,-0.272
17,COc1ccc(-c2nnn(CC(=O)N(Cc3ccccc3Cl)C(C(=O)NCC3CCCO3)c3ccco3)n2)cc1OC (stereo unspecified),0.205
18,CC(C)N(C(=O)CSc1nnc(-c2cc3ccccc3cc2O)n1Cc1ccco1)C(C)C,-0.0489
19,O=C(N=Nc1c(O)[nH]c2ccccc12)c1cccc(S(=O)(=O)N2CCCCC2)c1,-0.317
20,Cc1ccc(-n2nc3ccc(NC(=O)c4ccc5c(c4)OCO5)cc3n2)cc1,0.0138
21,COc1ccc(/C(C)=N/N=C(\C)c2ccc(OC)cc2OC)c(OC)c1,0.0708
22,CN1CCN(C(=O)c2ccc(COc3ccc(C(C)(C)C)cc3)o2)CC1,-1.02
23,CC1Cc2ccccc2N1C(=O)CSc1nnnn1C1CCCC1 (stereo unspecified),-0.0402

row,Compound,z-score
1,O=C(NC1CCS(=O)(=O)C1)OC1CCCCC1 (stereo unspecified),-0.729
2,CCOC(=O)C(Cc1ccccc1)C(=O)Nc1ccccc1C (stereo unspecified),-0.136
3,COc1ccc(-c2nc(C#N)c(NCc3ccccc3Cl)o2)cc1OC,-1.12
4,OCCCNC(=S)Nc1ccc2nc(-c3ccccn3)c(-c3ccccn3)nc2c1,-0.00335
5,Cc1cc(C)n(CC(O)Cn2c3ccc(Br)cc3c3cc(Br)ccc32)c(=O)n1 (stereo unspecified),0.596
6,Cc1cccc(NC(=S)NC(=O)c2ccco2)n1,active: 3.93
7,Cc1nn2c(-c3ccccc3)nnc2c2ccccc12,-2.86
8,Cc1nc(NCCc2ccccc2)c(C#N)c(C)c1[N+](=O)[O-],-0.0588
9,Cc1cc(C)cc(N(CC(=O)NCC2CCCO2)C(=O)CN2C(=O)COc3ccccc32)c1 (stereo unspecified),-0.231
10,CC(=C\C(=O)O)/C(=C/c1ccccc1)C(=O)O,0.113
11,Brc1ccccc1OCCCn1cnc2ccccc21,1.08
12,Cn1nnc(NC(=O)C(c2ccccc2)c2ccccc2)n1,0.0692
13,O=C(O)CC1S/C(=N/N=C/C=C/c2ccccc2)NC1=O (stereo unspecified),-0.0651 and -0.0273
14,CCCNS(=O)(=O)c1cccc2cccnc12,-0.338
15,CCOC(=O)/C=C1\NC(C)(C)Cc2cc(OC)c(OC)cc21,-0.0877
16,CCOc1ccccc1NC(=O)Cn1cnc2c(cnn2-c2ccc(C)c(C)c2)c1=O,-0.512
17,COc1cc(-c2nc3c(c(C)nn3-c3ccccc3)c3cc(OC)c(OC)cc23)ccc1O,-0.268
18,CCCCn1c(=O)[nH]c2ccccc21,-0.117
19,O=C(CSc1oc(-c2cccs2)nc1S(=O)(=O)c1ccccc1)NC1CCCCC1,-0.258
20,Clc1ccc2nc(N3CCNCC3)nc(-c3ccccc3)c2c1,1.19
21,Cc1ccc(N(CC(=O)NCCSCc2ccco2)S(C)(=O)=O)cc1,-0.296
22,CCOc1cc(/C=N/NC(=O)CN2CCCCC2)ccc1OCc1cccc(Cl)c1,0.18
23,CS(=O)(=O)N(Cc1ccccc1F)c1ccccc1,-0.21

row,Compound,z-score
1,CCCCOC(=O)C1=C(C)Nc2ncnn2C1c1ccc(OC)c(OC)c1OC (stereo unspecified),-0.181
2,COC(=O)c1sc(=S)n(-c2cc(F)ccc2F)c1N,-0.0195
3,COc1ccc(C(=O)CN2C(=O)C(C)(C)Oc3ccc(C(=O)N4CCCCCC4)cc32)cc1,-0.448
4,COc1ccc(N2C(=O)C3CCCN3C2c2ccc(Cl)cc2)cc1 (stereo unspecified),-0.0455
5,CC(=O)c1cnc(Nc2nc(C)c3ccccc3n2)nc1C,0.0595
6,Cc1ccc(S(=O)(=O)N2CCOCC2)cc1NC(=O)Cn1ccsc1=N,0.262
7,Cc1cc(N2CCN(Cc3ccccc3)CC2)n2nc(C)c(-c3ccccc3)c2n1,0.0393
8,CCOC(=O)CSc1nc2sc3c(c2c(=O)[nH]1)CCCC3,-0.982
9,CC(C)=CCC/C(C)=C/C=N/NC(=O)c1ccc([N+](=O)[O-])cc1,1.52
10,COCC(=O)Nc1ccc(Br)cc1,-0.174
11,Cc1ccc(NC(=O)C(C)c2cccc(C(=O)c3ccccc3)c2)cc1 (stereo unspecified),-0.329
12,CCOC(=O)Cn1c(=NC(=O)c2nc3ccccc3s2)sc2cc(S(N)(=O)=O)ccc21,-0.287
13,CC(CN1CCNCC1)(NS(=O)(=O)c1ccccc1)c1ccccc1 (stereo unspecified),0.939
14,COc1ccc(N=CC2=C(O)c3ccccc3C2=O)c(OC)c1,-0.0906
15,CCC(=O)N1N=C2CC(C)(C)OCC2C1c1ccccc1 (stereo unspecified),0.0291
16,COc1ccccc1-c1coc2c(CN3CCN(C)CC3)c(O)ccc2c1=O,-0.247
17,COc1ccc(/C=C/C(=O)NC(=S)NNC(=O)c2ccco2)cc1,0.921
18,Nc1c(-c2ccc(Cl)cc2)cnn1-c1cccc([N+](=O)[O-])c1,0.211
19,CCOc1ccc(NC(=S)N(Cc2ccc(Cl)cc2)Cc2ccco2)cc1,0.243
20,Cc1cc(C)c(N=C2CCCN2Cc2ccccc2)c(C#N)c1,-1.24
21,CCC(Sc1nc(N)c(NC(=O)c2ccc(OC)c(OC)c2)c(=O)[nH]1)C(=O)OC (stereo unspecified),-0.143
22,CSc1ncccc1C(=O)OCC(=O)NC(N)=O,-0.358
23,COC(=O)c1sccc1NC(=O)c1cc2c(s1)CCCC2,-0.149

row,Compound,z-score
1,COc1ccc(NC(=O)c2ccc(COCC(F)(F)C(F)F)cc2)cc1,-0.334
2,Cc1c(O)ccc(C(=O)COc2ccc(F)cc2)c1O,-0.135
3,CCOC(=O)N1CCC(N2CCN(S(=O)(=O)CC)CC2)CC1,-0.0847
4,COc1cc(CNC(=O)c2ccc(Cn3nc(C)c(Cl)c3C)o2)cc(OC)c1,-2.29
5,O=C(CCl)N1c2ccccc2OCC1c1ccccc1 (stereo unspecified),-0.994
6,CC1(C)CC(NC(=O)Cc2ccccc2[N+](=O)[O-])CC(C)(C)N1,-0.145
7,COc1ccc(S(=O)(=O)N2CCN(c3cc(-c4ccccc4)nc4ncnn34)CC2)cc1,-0.346
8,N#CCCN(Cc1cccnc1)C(=O)c1ccc(S(=O)(=O)N2CCOCC2)cc1,-0.285
9,O=C(OCc1ccccc1Cl)c1ccccc1C(=O)c1ccccc1,-0.013
10,CC(C)Cn1c(-c2ccco2)nc2c(c(=O)c3ccccc3n2C)c1=O,-1.47
11,COc1ccccc1CNC(=O)COC(=O)Cc1ccc(Cl)cc1,-0.422
12,Sc1oc(-c2ccccc2)cc1C=Nc1ccccc1,0.839
13,COC(=O)C1C(=O)NC(SC)=C(C#N)C1c1ccccc1 (stereo unspecified),-0.413
14,O=C(NCc1ccco1)c1ccc2c(c1)C(=O)c1ccccc1-2,-0.356
15,Cc1onc(-c2ccccc2Cl)c1C(=O)Nc1cccc2cccnc12,0.0209
16,COc1ccc(CN(Cc2cc3cc4c(cc3[nH]c2=O)OCO4)C(=O)NC2CCCCC2)cc1,0.473
17,O=C(CSc1ncnc2sc3c(c12)CCCC3)c1ccccc1,1.03
18,CCn1nnc(NC(=O)c2ccccc2Br)n1,-0.101
19,Cc1cc(C)nc(N(C#N)Cc2ccc(Br)cc2)n1,-1.35
